Results as given in the supplement of paper PMC12632987.
Over roughly 4,500 sequences, “median log2 fold change of GCK-ALFA target abundance (FLAG IP / Myc IP barcode read proportion)” has its median near 0.078; the lowest 2% begin near -0.6. The list shows a part of the results.

B1: GBRAP_160_4123 (protein)
chain: KEKKRKTLLDSAKDVEETLKIIEDLSPEEAGTLAIVTLGQILLDNDELDDEFPEIEKLADEAIEKLRETAKTDPEKLKELSKELLEEIRELLLKKAEELK
B2: GBRAP_39_5660 (protein)
chain: DEKEEAELLKSYYEALAVKYQVEKGISDEELHEEGIKLLKEIAEEHPEIKEAVEELIELMKEGDDEFKEAAFGIALLAKEGTPIEEIKKRIEELIKLYKS
B3: GBRAP_74_6551 (protein)
chain: MEEKLKAAEKALEEGDYLTAAKILKEILEEGPDEETIKRIQKLIVRLAERLDELDRAAVDALADAVAALFTNVPDELLSDETFRAAARILARAVELEAAE
B4: GBRAP_128_3297 (protein)
chain: SAEALRARYRERLLALRELSPEELHAATLALVAEAAALGLEAVEILAEELEALLPEFSVEQLEAIADALREAAATADPETRAILADAENDALLEAEEKEE
B5: GBRAP_39_5682 (protein)
chain: EEEEELELEVSYLEAIAAKYLYDTGISFEEALAEAKKVLKEYAKKNPELKELIEELIKLADEKGEEAQLVLIGIAVLIKEGTPKEEIKENIEKAIKYFKS
B6: GBRAP_11_2864 (protein)
chain: MKEKLKEAAKLAKEAVKVLDELLKKGVDDEELRKKLEELLKELEELAKKYLDESEVKLVEIAVENFEKALKDPENAEKYIKNALAALRVFEGQLLLLIDE
B7: GBRAP_125_3153 (protein)
chain: SKEEAVEALALIARRLGFDEGLVEEIARLAEKHSIKNTLYAIALAEGNEELADLVLKLTEEEVEEVVKEAAKYLEENPNITPEELKKKLLELAKKALKEK
B8: GBRAP_160_4285 (protein)
chain: EEEKKKLIEEVNELFEEAKEEMKGQTRAERVTVVRVTGGEVAMALWENPIATEELVDEALKIMDDLAATIAANPDLTDAEIEALLNEAREKIKKAIEESS
B9: GBRAP_52_5917 (protein)
chain: MEEEIKKIAEKILEAAIAGKKEEMKKLIKEAVETLNTEELAELVKKLAELTIERGPEYYDVFAEIMDILEDEVEEAGKNVEEIDYAIAEGFGRLYKAEQA
B10: GBRAP_184_5327 (protein)
chain: KTLEVHIPNASLEEIIKEVEKAAKEAAAAGADLLISIDAEGYSDEELVELLEAIGEIAKKEGVKNVTVGLDKAVDEETADKLIEVADKYGIRLTLALKDE
B11: GBRAP_128_3245 (protein)
chain: SQEELLAKALELIDRIVEVDVEEAAKLTAELLELLKQLDAESREKVADYLEERLKELSAEKLEAVADTIRANRGKLDPETAALVAGVEIDALELAEEKKE
B12: GBRAP_43_5783 (protein)
chain: SEELVDGAIDFALLMLEEPEVPEEQKVKAAVAAIELAADEGYLDKEKIMALVDAAAASLSAEELKKLAERLKEIAEKYPEHKEVLEEARAKVEAAIKAKE
B13: GBRAP_80_6753 (protein)
chain: GEAALAAALAELEELDPELGAALRAVLERALAAGVPVATVTRLVEALVELAKLDLERARELGRRFIAELEAALAAGDLEAATAVLIDAESDALLEVEELE
B14: GBRAP_52_6265 (protein)
chain: MREELRAQVEEIFNLVKEGKLEEARELARKLVESLNEEELELFIKEFAEYAKTVKKEEIPYVEKATEIIAEEMERAGVPEELVSLFEAEAYGAIYEREQK
B15: GBRAP_160_4269 (protein)
chain: KKTAEELAADVAEDRDEILSLVDELSAEEIRTLAVTELGSHLMEAIDEGVITDAEEDELAAIVDALEADLAAAADASPEELRAIITRYYDAAIALLKKAA
B16: GBRAP_52_6251 (protein)
chain: MAEELRAKAKEIVELVKEGKLEEARKLAREIARTYNEEEIEAFIDEFAKLAEESRLEDIEAVWEAAEIIAEALEEEGWDEVLVDYALARTAAALVKVEEK
B17: GBRAP_166_4983 (protein)
chain: SNKEIVEELKKYIDELAEKAKEADEEEKLELVAEAAEKIAEAKKKGLSPEDLKELVKYMIEKFKKVGIPISTVEGALSILADLNEEEIDILIEAAEEVEK
B18: GBRAP_74_6564 (protein)
chain: SAAMIKEIKEVAKTKSLKEFSEFILKNIDKLDEEALLVALKELKAKLEAEKDTVTPEELEVVSEAAAALADKVFTSEASEEAVKAAAALIKAVVALEKKA
B19: GBRAP_128_3166 (protein)
chain: SDEEIVEKVRELVEKMIEASPEEARELAEEIVEIFLEADLETAEKIAEVIIELLPKLSEEHLEILIDVIREKLPLFTPEKQELAAEVMVEAGEEILELEE

biological target: GABARAP, O95166; test: median log2 fold change of GCK-ALFA target abundance (FLAG IP / Myc IP barcode read proportion) (log2 ratio); each designed protein is fused to an ALFA-tag nanobody in HEK293 cells to bring the named protein to FLAG-tagged glucokinase (GCK); Myc marks an untargeted standard; higher = target protein stabilised (more abundant); settings: target protein: 3xFLAG-MCP-GCK-ALFA reporter; HEK293 landing pad (RPLP)
Outline: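 HEK293 landing-pad cells received a recombined binder library fused to the ALFA nanobody and were induced with 2 μg mL^−1 doxycycline, then transfected with a plasmid encoding a FLAG-tagged target and a Myc-tagged standard. Lysates were collected after 48 h for anti-FLAG and anti-Myc immunoprecipitation, and the circular RNA barcodes were reverse transcribed, amplified and sequenced. Target abundance for each binder is the median log2 ratio of FLAG to Myc barcode read proportions. Barcodes had to reach a proportion of at least 10^−7 in both replicates, each binder needed at least 3 barcodes per replicate, a pseudocount of 10^−6 was applied, and the two replicates were pooled.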

Sequence of GABARAP, O95166 (O95166 whole entry, the tested form may be a part): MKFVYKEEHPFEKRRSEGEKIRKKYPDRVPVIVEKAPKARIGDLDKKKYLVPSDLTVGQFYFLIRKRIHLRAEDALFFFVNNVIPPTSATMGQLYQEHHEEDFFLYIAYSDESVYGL

Row | Binder | median log2 fold change
1 | B1 | 0.128
2 | B2 | -0.0694
3 | B3 | -0.113
4 | B4 | 0.0146
5 | B5 | 0.0329
6 | B6 | 0.0563
7 | B7 | -0.369
8 | B8 | -0.0523
9 | B9 | 0.144
10 | B10 | -0.113
11 | B11 | 0.182
12 | B12 | 0.364
13 | B13 | 0.175
14 | B14 | 0.0899
15 | B15 | 0.199
16 | B16 | -0.554
17 | B17 | -0.191
18 | B18 | -0.329
19 | B19 | 0.118
